Experimental data: PubChem BioAssay AID1345083 (National Center for Advancing Translational Sciences (NCATS), 2018)
Several values for one entry are separate records, joined by “and”; a condition that tells them apart may be missing. Equal values may be shown once. Out of some 94,000 compounds screened, about 6,200 (6.6%) were called active. Inconclusive means that the source gave no clear call. Such entries were picked first, then a sample of the others. The call rests on the fitted dose curve; in most records, active means well fitted inhibition curve with a large enough effect; inconclusive means small, poorly fitted or top-dose-only effect; inactive means flat fitted curve, though single readings scatter. Where the call is inconclusive, the potency comes from a doubtful curve fit.

assay: Cytotoxic Profiling in HEK 293 Cell Line of Diverse Libraries Using Quantitative High-Throughput Screening; details: HEK 293 viability, ATP luminescence (CellTiter-Glo), 48-72 h; activity change, negative = cytotoxicity: at 115 µM (top of the series) unless noted; series mostly up to 115 µM; further: nearly all actives have a fitted effect of over 60% in size
In short: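 HEK 293 seeded at 250 cells/well receive compound via pintool. After 48 or 72 hr at 37 degree Celsius, 5% CO2 and 95% humidity, CellTiter-Glo is dispensed and luminescence read following 10 min at room temperature.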
On the % scale 0 is the no-effect control and ±100 the full control effect; potency means the concentration at half of the fitted maximal effect; tags describe the fitted curve by direction and shape.

SMILES | Potency | activity change, negative = cytotoxicity | outcome
Cn1ncc2c(C(=O)NCc3ccc(F)cc3)cc(-c3ccsc3)nc21 | inconclusive: 31.6 µM [inhibitor, full curve] | – | –
Cn1nccc1C(=O)N1CCC(Cc2nc(C3CCOCC3)no2)CC1 | inconclusive: 7.94 µM [inhibitor, full curve, poor fit] | – | –
CCNC(=O)N1CCCCCC1CN1CCOCC1 (stereo not drawn) | – | inactive: -3.44% | –
CC(CCc1ccccc1)NC(=O)Cn1ccn2nc3c(c2c1=O)CCCC3 (stereo not drawn) | inconclusive: 89.1 µM [inhibitor, single point] | – | –
COc1ccc(-c2cc(N3CCC(NC(=O)c4ccc5nc[nH]c5c4)CC3)n[nH]2)cc1 | inconclusive: 50.1 µM [inhibitor, partial curve, poor fit] | – | –
COC(=O)C1=C(C)N=C2SC=C(CC(=O)NCCOc3ccccc3)N2C1c1cccc(OC)c1 (stereo not drawn) | inconclusive: 100 µM [inhibitor, single point] | – | –
COc1ccccc1CNC(=O)c1c(C)sc2ccn(Cc3ccc(F)cc3)c(=O)c12 | inconclusive: 44.7 µM [inhibitor, partial curve, poor fit] | – | –
CC(C)C(=O)N1CCC2(CC1)OC(=O)N(Cc1ccccc1)C2(C)c1ccccc1 (stereo not drawn) | inconclusive: 100 µM [inhibitor, partial curve] | – | –
Cc1nn(-c2ccccc2)c2c1C(C1CC1)N(C1CCN([S+](=O)([O-])c3cccs3)C1)C2=O (stereo not drawn) | inconclusive: 25.1 µM [inhibitor, full curve] | – | –
Cc1nnc(C2CCCCCN2S(=O)(=O)c2ccccc2C)o1 (stereo not drawn) | – | inactive: -5.67% | –
CN1CCCCCCN(C(=O)CCCc2ccccc2)[C@H]2CCC[C@H]2C1=O | inconclusive: 44.7 µM [inhibitor, partial curve, poor fit] | – | –
Cc1ccc(NC(=O)c2cc3n(n2)CC(c2ccc(Cl)cc2)OC3)cc1 (stereo not drawn) | inconclusive: 79.4 µM [inhibitor, single point] | – | –
O=C1c2cc(N3CCOCC3)nc(-c3cccc(O)c3)c2CN1CC(F)(F)F | inconclusive: 8.91 µM [inhibitor, full curve, poor fit] | – | –
COc1cccc(CN2Cc3cc(NC(=O)CC(C)(C)C)ccc3OC(C)C2=O)c1OC (stereo not drawn) | inconclusive: 39.8 µM [inhibitor, partial curve, poor fit] | – | –
CNC(=O)c1cc(C)nc2onc(C3CCN(C(=O)c4ccc(Cl)nc4)CC3)c12 | – | – | inactive
O=C(Nc1cc(-c2ccncc2)nn1-c1ccccc1)c1cccc(Cl)c1 | inconclusive: 50.1 µM [inhibitor, partial curve, poor fit] | – | –
O=C(Nc1ccc(F)cc1)c1ccc2oc(-c3cccnc3Cl)nc2c1 | inconclusive: 5.62 µM [inhibitor, full curve, poor fit] | – | –
COc1ncccc1CNC[C@H]1Cn2c(-c3ccc(Cl)cc3)cnc2CO1 | inconclusive: 100 µM [inhibitor, partial curve, poor fit] | – | –
Cc1nn(-c2ccccc2)c2c1C(C)N(CC1CN([S+](=O)([O-])c3cccs3)C1)C2=O (stereo not drawn) | inconclusive: 79.4 µM [inhibitor, single point] | – | –
CC(C)NC(=O)C1CCc2nnc(C3CCN(C(=O)c4ccc(Cl)cc4Cl)CC3)n21 (stereo not drawn) | – | – | inactive
COc1ccccc1-c1nc(C(=O)N(C)C)n2ccccc12 | – | inactive: 2.4% [at 172 µM] | –

SMILES | Potency | activity change, negative = cytotoxicity | outcome
CC(=O)c1ccc(N2CCN(C(=O)c3nnn4c3COC(c3ccc(F)cc3)C4)CC2)cc1 (stereo not drawn) | inconclusive: 25.1 µM [inhibitor, partial curve, poor fit] | – | –
O=C(c1cc2ccccc2[nH]1)N1CCc2c(n(Cc3cccnc3)n(CCc3ccccc3)c2=O)C1 | – | inactive: -18.7% | –
Cc1cn2nc(C(=O)N3CCC(C)CC3)cc2c(N(C)Cc2ccccc2)n1 | inconclusive: 56.2 µM [inhibitor, partial curve, poor fit] | – | –
O=C(Cc1ccc(F)cc1)N1CCCC(c2nn(-c3ccc(F)cc3)c(=O)[nH]2)C1 (stereo not drawn) | inconclusive: 89.1 µM [inhibitor, single point] | – | –
Oc1ccc(-c2nc(C3CC3)nc3c2CN(Cc2ccc(OC(F)(F)F)cc2)CC3)cc1 | inconclusive: 50.1 µM [inhibitor, partial curve, poor fit] | – | –
Cc1cc(=O)n(CC(=O)Nc2ccc(C)c(F)c2)c(N2CCc3ccccc3C2)n1 | active: 8.91 µM | – | –
CCOC(=O)C1=CN(CC(=O)NC(C)c2ccccc2)S(=O)(=O)N=C1C (stereo not drawn) | inconclusive: 35.5 µM [inhibitor, partial curve, poor fit] | – | –
O=C(NCc1cccnc1)C1(CCO)CC12CCOCC2 (stereo not drawn) | – | inactive: -0.234% | –
CCn1ccnc1CN1CC[C@H](N2CCN(C)CC2)[C@H](CCC(=O)O)C1 | – | inactive: 1.35% | –
O=C(NCc1ccc(F)cc1)C1COC2(CCCCC2)N1C(=O)c1cccc(F)c1 (stereo not drawn) | inconclusive: 89.1 µM [inhibitor, single point] | – | –
COc1ccc(F)c(CN2CCCC(O)(CN3CCC(C)CC3)C2=O)c1 (stereo not drawn) | inconclusive: 39.8 µM [inhibitor, full curve] | – | –
O=C(NCC(F)(F)F)C1CCN(c2nccc(Nc3ccccc3F)n2)CC1 | inconclusive: 79.4 µM [inhibitor, partial curve, poor fit] | – | –
Cc1ccncc1-c1c(C)nn2c1N(C(=O)c1cccc(Cl)c1)CCC2 | – | inactive: -24.7% [at 172 µM] | –
NC(=O)[C@@H](Cc1c[nH]c2ccccc12)NC(=O)[C@@H]1C[C@@H](NS(=O)(=O)c2cccs2)CCN1C(=O)CSCC(=O)O | – | inactive: -3.82% | –
COc1cccc(-c2noc(CC3CCN(C(=O)c4cc(OC)c(OC)c(OC)c4)CC3)n2)c1 | active: 44.7 µM | – | –
COCCN1C(=O)c2cccn2CC1CNC(=O)c1ccoc1 (stereo not drawn) | – | inactive: 1.42% | –
O=C(Nc1cccc2ccccc12)O[C@@H]1CO[C@H]2[C@@H]1OC[C@@H]2NC(=O)N1CCOCC1 | inconclusive: 126 µM [inhibitor, single point] | – | –
CSc1cccc(NC(=O)Nc2cccc(-c3ccc(N4CCCC4)nn3)c2)c1 | inconclusive: 35.5 µM [inhibitor, full curve, poor fit] | – | –
Cc1ccc(C2Cn3nnc(C(=O)N4CCN(C(=O)c5ccc(F)cc5)CC4)c3CO2)cc1 (stereo not drawn) | – | inactive: -9.76% | –
CN1CCC(Nc2ccc3c(n2)CN(Cc2ccc(C(F)(F)F)cc2)C(=O)CO3)CC1 | inconclusive: 100 µM [inhibitor, partial curve, poor fit] | – | –
CN(Cc1cccnc1)c1nc2c(c(=O)[nH]1)CCN(Cc1ccc(Cl)cc1F)CC2 | inconclusive: 17.8 µM [inhibitor, full curve, poor fit] | – | –

SMILES | Potency | activity change, negative = cytotoxicity | outcome
COc1cccc(CNC(=O)[C@@H]2C[C@@H](O)CN2C2CCN(C(=O)c3ccc(OC)cc3OC)CC2)c1 | – | inactive: 3.47% | –
COc1ccc(CN2CCC(N3Cc4cnc(C)n4C3=O)CC2)cc1 | inconclusive: 79.4 µM [inhibitor, partial curve, poor fit] and inconclusive: 100 µM [inhibitor, partial curve] | – | –
CC(C)NC(=O)N1CNC(=O)C12CCN(C(=O)CN)CC2 | – | – | inactive
N#Cc1cccnc1N1CCC(NC(=O)c2ccc3cccc(F)c3n2)CC1 | inconclusive: 56.2 µM [inhibitor, partial curve, poor fit] | – | –
O=C(c1ccc2c(c1)OCO2)N1CCC(n2cc(-c3nc(-c4ccccc4)no3)nn2)CC1 | inconclusive: 39.8 µM [inhibitor, partial curve, poor fit] | – | –
Fc1cccc(CN2CCC(Oc3ccc(-c4noc(C5CC5)n4)cc3)C2)c1 (stereo not drawn) | inconclusive: 56.2 µM [inhibitor, partial curve, poor fit] | – | –
CCCC(C)NC(=O)c1cc(-c2ccc(C(F)(F)F)cc2)nc2c1cnn2C (stereo not drawn) | – | inactive: -14.7% | –
O=C(CCc1ccccc1Cl)N1CCn2nc(Cc3ccccc3)cc2C1 | inconclusive: 50.1 µM [inhibitor, partial curve, poor fit] | – | –
C#CCNC(=O)[C@@H]1CCCN1c1nccc(Nc2ccccc2Cl)n1 | inconclusive: 50.1 µM [inhibitor, partial curve, poor fit] | – | –
COCCC(=O)N[C@@H]1CN(Cc2ccccc2)C[C@H]1CN(C)C | – | inactive: -13.2% | –
COc1cccc(N2CCN(C(=O)CCc3conc3-c3ccccc3)CC2)c1 | inconclusive: 28.2 µM [inhibitor, full curve] | – | –
O=C([C@@H]1C[C@H](Oc2cccnc2)CN1C(=O)CCc1ccccc1)N1CCCC1 | – | inactive: -17.5% | –
CC(=O)NCC(=O)N1Cc2ccccc2CC2(CCCCN2CC2CCNC2)C1 (stereo not drawn) | – | – | inactive
O=C(NCc1ccccc1Cl)c1ccc2nnc(Cc3ccco3)n2c1 | inconclusive: 100 µM [inhibitor, partial curve, poor fit] | – | –
CN1CCCC1c1nc(C2CN(C(=O)CC3CCCCC3)C2)no1 (stereo not drawn) | – | inactive: -4.82% | –
COC(=O)C1=C(C)N=C2SC=C(CC(=O)NCCc3cccs3)N2C1c1ccccc1Cl (stereo not drawn) | inconclusive: 39.8 µM [inhibitor, partial curve, poor fit] | – | –
CC(=O)c1cccc(NC(=O)c2cnc(-c3ccc(C)cc3)nc2-c2ccncc2)c1 | inconclusive: 79.4 µM [inhibitor, partial curve, poor fit] | – | –
NC(=O)Cc1c[nH]c2ncc(-c3ccc(Cl)cc3)cc12 | inconclusive: 126 µM [inhibitor, partial curve] | – | –
O=C(NCc1ccncc1)C1CC(=O)N(c2n[nH]c3cccc(F)c23)C1 (stereo not drawn) | – | inactive: -11% | –
O=C(NC1CCCc2c1[nH]c1ccccc21)c1ccncc1 (stereo not drawn) | inconclusive: 50.1 µM [inhibitor, partial curve, poor fit] | – | –
Fc1ccc(CN2CCn3c(nnc3-c3ccccc3)C2)cc1 | inconclusive: 112 µM [inhibitor, partial curve] | – | –
